{
  "source": "the supplement of paper PMC12645437",
  "about": "“Orthogonal IMiD-Degron Pairs Induce Selective Protein Degradation in Cells” (ACS Chemical Biology, 2025)",
  "note": "The other results are listed elsewhere or left out.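 Further: jurkat cells carrying a lentiviral library of mutant zinc finger degrons fused to EGFP plus mCherry, mCherry+ cells FACS sorted, degron abundance counted by next-generation sequencing.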",
  "data": [
    {"molecular_target": "no compound (DMSO)", "assay": "log2 fold change of degron read counts, EGFP-low vs EGFP+ sorted cells; higher = lower degron-EGFP level without compound (poor expression or instability)", "details": "compound: DMSO control; 18 h", "values": [
      {"sequence": "FQCEICGHCFTQKGNLLRHIKL", "log2 fold change of degron read counts": -1.43},
      {"sequence": "LNCNQCGFQCTQKGNLLRHIKL", "log2 fold change of degron read counts": 0.157},
      {"sequence": "LVCPICGFHCTQKGNLLRHIKL", "log2 fold change of degron read counts": 0.771},
      {"sequence": "FECPICGHCFTQKGNLLRHIKL", "log2 fold change of degron read counts": -0.925},
      {"sequence": "FNCPICGARFTQKGNLLRHIKL", "log2 fold change of degron read counts": 0.124},
      {"sequence": "LWCNQCGFPCTQKGNLLRHIKL", "log2 fold change of degron read counts": 1.74},
      {"sequence": "FWCPVCGAVFTQKGNLLRHIKL", "log2 fold change of degron read counts": 1.03},
      {"sequence": "FTCPVCGASFTQKGNLLRHIKL", "log2 fold change of degron read counts": -0.135},
      {"sequence": "FNCEVCGAVFTQKGNLLRHIKL", "log2 fold change of degron read counts": -1.75},
      {"sequence": "FVCDQCGAGFTQKGNLLRHIKL", "log2 fold change of degron read counts": -3.11},
      {"sequence": "FTCEQCGANFTQKGNLLRHIKL", "log2 fold change of degron read counts": -2.45},
      {"sequence": "FNCNQCGASFTQKGNLLRHIKL", "log2 fold change of degron read counts": -1.78},
      {"sequence": "FICPICGAVFTQKGNLLRHIKL", "log2 fold change of degron read counts": 0.0236},
      {"sequence": "FGCPICGRRFTQKGNLLRHIKL", "log2 fold change of degron read counts": -0.591},
      {"sequence": "FYCDQCGAMFTQKGNLLRHIKL", "log2 fold change of degron read counts": -1.46},
      {"sequence": "FSCEICGANFTQKGNLLRHIKL", "log2 fold change of degron read counts": -2.13},
      {"sequence": "FDCSVCGHIFTQKGNLLRHIKL", "log2 fold change of degron read counts": 1.21},
      {"sequence": "LACEICGFICTQKGNLLRHIKL", "log2 fold change of degron read counts": 0.44},
      {"sequence": "FNCDQCGAKFTQKGNLLRHIKL", "log2 fold change of degron read counts": -1.83},
      {"sequence": "LRCPICGFCCTQKGNLLRHIKL", "log2 fold change of degron read counts": 1.09},
      {"sequence": "FTCPVCGAIFTQKGNLLRHIKL", "log2 fold change of degron read counts": -0.157},
      {"sequence": "FCCNICGAYFTQKGNLLRHIKL", "log2 fold change of degron read counts": 0.748},
      {"sequence": "LCCEICGFSCTQKGNLLRHIKL", "log2 fold change of degron read counts": -0.513},
      {"sequence": "FCCNICGAAFTQKGNLLRHIKL", "log2 fold change of degron read counts": -0.642},
      {"sequence": "FDCDQCGAEFTQKGNLLRHIKL", "log2 fold change of degron read counts": -1.39},
      {"sequence": "FFCPICGAKFTQKGNLLRHIKL", "log2 fold change of degron read counts": 0.0537},
      {"sequence": "FACDVCGAMFTQKGNLLRHIKL", "log2 fold change of degron read counts": -1.49},
      {"sequence": "FECNICGAKFTQKGNLLRHIKL", "log2 fold change of degron read counts": -1.88},
      {"sequence": "FCCNQCGRPFTQKGNLLRHIKL", "log2 fold change of degron read counts": 0.271},
      {"sequence": "FICPICGRQFTQKGNLLRHIKL", "log2 fold change of degron read counts": -0.466},
      {"sequence": "FCCPICGAQFTQKGNLLRHIKL", "log2 fold change of degron read counts": 0.436},
      {"sequence": "FFCNQCGANFTQKGNLLRHIKL", "log2 fold change of degron read counts": 0.147},
      {"sequence": "FACEQCGAGFTQKGNLLRHIKL", "log2 fold change of degron read counts": -3.27},
      {"sequence": "FICDQCGATFTQKGNLLRHIKL", "log2 fold change of degron read counts": -2.05},
      {"sequence": "FACEQCGAYFTQKGNLLRHIKL", "log2 fold change of degron read counts": -1.24},
      {"sequence": "FGCPVCGAPFTQKGNLLRHIKL", "log2 fold change of degron read counts": 0.129},
      {"sequence": "FICEICGRYFTQKGNLLRHIKL", "log2 fold change of degron read counts": -0.377},
      {"sequence": "FECEICGHHFTQKGNLLRHIKL", "log2 fold change of degron read counts": -1.88},
      {"sequence": "LECEICGFDCTQKGNLLRHIKL", "log2 fold change of degron read counts": -1.93},
      {"sequence": "FACDICGARFTQKGNLLRHIKL", "log2 fold change of degron read counts": -0.632},
      {"sequence": "FDCEICGRFFTQKGNLLRHIKL", "log2 fold change of degron read counts": 0.858},
      {"sequence": "FDCPICGHCFTQKGNLLRHIKL", "log2 fold change of degron read counts": -0.563},
      {"sequence": "FGCPQCGADFTQKGNLLRHIKL", "log2 fold change of degron read counts": -1.34},
      {"sequence": "FDCSVCGHHFTQKGNLLRHIKL", "log2 fold change of degron read counts": -0.274},
      {"sequence": "LWCPICGFFCTQKGNLLRHIKL", "log2 fold change of degron read counts": 3.79},
      {"sequence": "LFCEICGFICTQKGNLLRHIKL", "log2 fold change of degron read counts": 2.17},
      {"sequence": "LVCNQCGFFCTQKGNLLRHIKL", "log2 fold change of degron read counts": 1.92},
      {"sequence": "FRCEVCGASFTQKGNLLRHIKL", "log2 fold change of degron read counts": -1.53},
      {"sequence": "FKCNICGASFTQKGNLLRHIKL", "log2 fold change of degron read counts": -0.227},
      {"sequence": "FYCEICGAWFTQKGNLLRHIKL", "log2 fold change of degron read counts": -0.085}
    ]}
  ]
}
